Test results published in the supplement of paper PMC11417369.
The other results are listed elsewhere or left out.

test system: PF3D7_0420300 AP2 domain 1 (GST-tagged); test: gcPBM binding intensity (ln(normalized median fluorescence intensity)); higher = stronger DNA binding
Procedure, shortened: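 GST-tagged P. falciparum DNA-binding domains, expressed in E. coli (about 25 μg on average), were applied for 1 h to an Agilent 4 × 180k array of primer-extended double-stranded 36-bp intergenic genomic probes plus negative controls. The binding buffer was 1× PBS with 1% milk, 0.2 mg/ml BSA, 0.5% salmon testes DNA and 0.03% Triton X-100. Bound protein was detected with Alexa488 anti-GST antibody and scanned at 488 nm. Binding intensity is the highest Masliner-normalised natural-log median intensity across replicate spots of either probe orientation.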

Row | Sequence | gcPBM binding intensity (ln)
1 | TAAATCCGTTTGATGGGTACATACATACATACATAT [XGTACX_site8889] | 9.27
2 | ATTTATTTTAGTAAAGCACACGTGTAAAATATATCT [CACACA_site4820] | 9.35
3 | ACAATAAAATATGGCACACATATATATATATATTTA [CACACA_site3] | 9.35
4 | TCTTTTTTGAACTAGCGTACATGAAAATATTTATAG [XGTACX_site7359] | 9
5 | TTATTACATATAAAGGAAAATAGCATCTAGATTAAA [XGTACX_negctrl_site435] | 9.1
6 | AAAAAAAAAAAAAAAAAATACATATACATTTGTGCA [CACACA_negctrl_site1431] | 9.12
7 | TTTTTATTTATATATAAGGAAAATGCGGTATATATT [CACACA_negctrl_site1770] | 9.24
8 | AATTAAATATTATAAACACACATATAGATTATTTTT [CACACA_site6538] | 9.38
9 | ATTTCTTATTAAATTACACACAAAGTAAATAAATCT [CACACA_site3924] | 9.27
10 | ATTTTAAATATGGAATGTACTTAAAAAAAATTTCAT [XGTACX_site5058] | 8.94
11 | TTGTTTTGGATTATCACACATATAATATATACTCAT [CACACA_site4780] | 9.46
12 | TTTTCCTTTTTTTTTACATGCAGATATAGAAAGGTA [TGCATGCA_site106] | 8.82
13 | TATAATAATATGGATTGTACATATATATTTAATTAA [XGTACX_site4327] | 9.08
14 | AAATACATAACTTAAAATTTGTTCATATCTATACAT [TGCATGCA_negctrl_site249] | 9.19
15 | GTAATTTTTTTCTATACACACATATCTATAATATAT [CACACA_site7284] | 9.75
16 | TACTTATAATTTCAATGTACATATATATAATATCAT [XGTACX_site2424] | 9.17
17 | TATGTATAACTCAATGCATGCGAAGGACTATTATTT [TGCATGCA_site222] | 9.34
18 | AATATTGTTCACAAGGTGCTTTTTATTCATACTAAT | 9.32
19 | ACCTCACAAATGAATACACACAAACATATAGATTTA [CACACA_site6862] | 9.7
20 | ATATATAAAATTATATGTACATATATCTATTTATAA [XGTACX_site3713] | 9.04
21 | TTTAAAATTTCTTAATGTACGTAATAAAAAAAAAAA [XGTACX_site4037] | 8.94
22 | GATTAAAACTTTAACTGTACATAATAATTATCAATC [XGTACX_site5938] | 9.13
23 | TATATGTATTTATATACACACATATTCTTTTTACAC [CACACA_site8320] | 9.47
24 | AATATTTTGAACAACAGTACTCTTTCTTTCTTTCTT [XGTACX_site7212] | 9.23
